The supplement of paper PMC3334620
In all, about 33,000 sequences were measured (“E-score (-0.5 to 0.5)”: median about -0.035, highest 2% from about 0.35 on). This is one part of the list.

The sequences below were run against T1, Pdr3 (UniProt P33200) (assay: PBM E-score (8-mer binding enrichment) (E-score (-0.5 to 0.5)); higher = stronger / more preferred TF binding; most listed sequences are background and not binding sites). Settings: protein concentration: 200 nM; construct: GST-full length.
T1 sequence: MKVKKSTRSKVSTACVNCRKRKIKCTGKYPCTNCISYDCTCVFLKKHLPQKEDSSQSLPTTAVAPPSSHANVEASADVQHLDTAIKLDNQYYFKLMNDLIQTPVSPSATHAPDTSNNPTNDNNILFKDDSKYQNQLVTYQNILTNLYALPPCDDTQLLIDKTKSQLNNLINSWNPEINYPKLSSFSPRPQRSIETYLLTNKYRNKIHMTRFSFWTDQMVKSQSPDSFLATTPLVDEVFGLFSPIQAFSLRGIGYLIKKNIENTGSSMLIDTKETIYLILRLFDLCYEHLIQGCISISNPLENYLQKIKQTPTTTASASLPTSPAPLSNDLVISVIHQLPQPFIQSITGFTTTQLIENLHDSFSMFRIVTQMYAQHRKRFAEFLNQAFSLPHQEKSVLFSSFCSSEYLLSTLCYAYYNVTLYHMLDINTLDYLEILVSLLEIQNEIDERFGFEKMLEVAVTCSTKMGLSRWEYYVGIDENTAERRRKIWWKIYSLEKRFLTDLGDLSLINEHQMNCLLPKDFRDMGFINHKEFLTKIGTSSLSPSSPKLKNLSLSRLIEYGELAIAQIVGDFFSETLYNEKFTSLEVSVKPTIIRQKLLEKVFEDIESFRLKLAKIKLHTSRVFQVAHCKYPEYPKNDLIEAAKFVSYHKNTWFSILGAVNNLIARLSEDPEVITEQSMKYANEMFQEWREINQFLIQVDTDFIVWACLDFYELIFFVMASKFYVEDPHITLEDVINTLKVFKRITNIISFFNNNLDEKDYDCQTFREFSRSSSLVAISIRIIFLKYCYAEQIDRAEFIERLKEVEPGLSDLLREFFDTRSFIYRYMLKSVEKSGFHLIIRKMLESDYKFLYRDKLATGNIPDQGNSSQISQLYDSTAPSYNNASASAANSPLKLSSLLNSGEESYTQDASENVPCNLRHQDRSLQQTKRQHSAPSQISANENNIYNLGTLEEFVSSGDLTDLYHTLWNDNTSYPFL
Outline: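 Full-length yeast transcription factors or their DNA-binding domains, GST-tagged and expressed with PURExpress, were applied at about 100-200 nM to universal all-10-mer Agilent arrays. These arrays had been made double-stranded by primer extension on fresh or once-stripped slides. Detection used fluorescent anti-GST, normalisation used masliner, and E-scores for ungapped eight-base words pooled with reverse complements came from the Universal PBM Analysis Suite.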

Sequence | PBM E-score
ATTAGGGC | -0.0874
CAAATGCG | 0.0429
ATTGAACC | -0.0416
CAGAGTTC | -0.0462
CCCGCTAG | 0.0933
GCTAAAAC | -0.113
CGCCTCAC | 0.152
GAACTTCA | -0.0972
GGTGTCAA | -0.0313
AGTGCCGA | 0.138
GAGATAGC | -0.109
GAATTTCA | -0.0569
CTCATTGC | -0.0175
CCAGGCAC | -0.0183
CCCTCTCG | -0.125
CAACCAAC | -0.00416
TTCGGAAA | 0.391
ATTAGATA | -0.0766
AGCCTCCA | -0.164
CTAGCCTA | -0.105
CCTGACGA | -0.0795
CGCCCTTC | -0.0257
AGGACGGG | 0.0362
TAGCGTAA | 0.0306
CTCTGCGC | 0.0675

Sequence | PBM E-score
AGTATTGC | -0.0115
GGTACAAC | -0.0241
ACTGATTG | -0.196
AACCTATT | -0.0855
AGGGAACG | -0.0864
CCCTAAGA | -0.243
CCAAGACC | -0.103
ATCGTTCA | -0.155
AGATATAA | 0.0365
CTTTTTCA | -0.211
CTAAAGAC | -0.191
GGCCTAAC | 0.00244
CAACTGCC | 0.0196
GCTAGGGA | -0.123
ATCCACCC | 0.0371
TCAGTGAA | -0.055
ACCTGGCG | -0.0867
CCATGATC | -0.115
AAAAATCC | 0.103
GATCCAGC | 0.0828
ATTCTGGC | -0.176
AAAGAAAC | 0.0186
AGCTATAA | -0.181
CGGGGAAG | 0.23
ATGAGCAC | -0.164

Sequence | PBM E-score
ACGTGAAG | -0.237
CCACGTAC | -0.206
CAGCGAGA | -0.027
ACCTACTA | -0.138
TTACCGAA | 0.105
TGATATCA | -0.267
ATTATGCG | 0.233
ATAGGATC | -0.128
ACTGTGAG | -0.0549
CTATCACA | -0.116
GCTTACCA | -0.0565
CAAACCTA | -0.09
AGCATTCC | 0.238
CTTTTTTA | -0.0672
CAACATAG | -0.144
CTCAAATC | -0.145
AACCAAAG | -0.149
CCACGGCC | 0.0766
CCAGGGGG | -0.205
CCGGGGTA | 0.341
AATGTGGG | -0.0168
ACTGGCCC | 0.0736
GCGAACAA | 0.254
GCGTCTCA | -0.177
ACCGCCCA | 0.0538

Sequence | PBM E-score
AAGAGACA | 0.0812
AACAGGGC | -0.116
AATGAGAC | -0.132
TCAACCAA | -0.013
ACCTTGAT | 0.00904
TGATGTAA | -0.0541
GTGGTTCA | 0.0321
TAACCGGA | 0.308
CACTACAC | -0.0862
CGTTTGGA | 0.021
CTTTGGCC | -0.0664
CGGGCATA | 0.0796
AAGCTGCG | -0.0451
AATCAGTA | -0.0622
GCGATGTA | -0.0622
AGTACCAG | -0.0418
AGTCTGTG | -0.193
GGACGTGA | -0.0735
ACCTCTGC | -0.197
AATGCTTC | -0.0412
GAGTAAAC | -0.0241
ATTACGTA | 0.0362
GTTAGAAC | -0.0252
AGCTCGGG | 0.241
CGTTACAC | -0.0938

Sequence | PBM E-score
ATTACACC | -0.114
CTACGCAC | -0.177
GGTGTCCA | 0.0211
ACTGAAAG | -0.0726
CCCTTGGA | -0.00729
CCAGCGTA | -0.122
GCGTTTCA | -0.135
CCAGTACC | 0.0713
GAGTAGTA | -0.034
CCTACCCG | 0.178
CACATAGC | -0.00643
AGCCGGGG | 0.152
CGATCGAA | 0.0687
ATGGCGCA | 0.153
AATCCGCG | 0.388
ACTATTTA | 0.204
CATCTGAC | -0.151
CTACTTAC | -0.312
AATTCTGT | 0.0536
GCCGAACC | 0.129
AACAATTA | 0.219
GGTGGGAC | -0.132
AACTATCC | 0.151
AGCTATGC | -0.331
CAATGGCA | -0.0775

Sequence | PBM E-score
AATCTTCA | 0.0253
CGACCCAC | -0.00081
AGGAAGCC | -0.0295
AAGCATTG | -0.219
GAACGGAC | 0.259
AGGAGATC | 0.0413
AGCCTTAA | -0.174
AAGGGTAC | -0.2
AACAAGTG | -0.111
GTGGAGCA | -0.104
AAGTATTG | -0.109
CCCAGTTC | 0.188
GGAGCCGA | 0.152
TATTTGCA | -0.108
TGTCCACA | 0.0302
ACACTGAT | -0.25
GTGTTTGA | -0.166
GCTCCGAA | 0.361
AGTATTCC | 0.34
CAGCACTA | -0.225
CTATTCGA | -0.315
CTTGCCGC | 0.148
CAAAGTCA | -0.0562
AGATGCAC | -0.204
GAATTCAA | 0.171

Sequence | PBM E-score
GGCATCCA | -0.23
CCGAGGTA | 0.238
GGTTAGCA | -0.243
AAAAATGC | 0.19
GAAGCTTC | 0.22
CATTTGAC | -0.0401
CCGACGGA | 0.413
GTAGGACA | -0.0244
CTTGAGCA | -0.262
ACGGCAAT | 0.193
GCGACTCA | -0.186
GGAACAAA | 0.352
GAAAATTA | 0.0464
CAGGCTCG | -0.00697
TCACGTGA | 0.0624
GTCCCAAA | -0.154
CTAACTAC | -0.168
CGTAGGAC | -0.0491
GACACAAA | 0.113
CCTTTCTA | -0.144
ACAAGAAA | 0.0587
ACCAGGAC | 0.00157
